{"source": "the supplement of paper PMC10126150", "note": "Sequences with one replicate were seen in a single cluster, so their values are uncertain.", "data": [{"system": "ATP", "assay": "switch fluorescence ratio, 500 uM ATP over buffer (Cy3 cluster intensity, sum of 5 cycles each) (fold (ratio)); higher = stronger signal-on switching upon ATP binding; sequences stand for … in TCGTCGGCAGCGTCAGATGTGTATAAGAGACAGTTTTTTTTTTTTTTTTTTTTTTTTT…TC", "conditions": "aptamer strand: ATP DNA aptamer (quencher-CACCTGGGGGAGTATTGCGGAGGAAGG + anchor), 100 nM annealed; ATP concentration: 500 uM; one replicate", "method_in_brief": "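Exposure to 500 uM ATP lasted 15 min at 22 °C before imaging, and a selection-buffer image was taken beforehand, for Cy3-labelled switching-strand clusters on a modified Illumina MiSeq flow-cell annealed to 100 nM quencher-labelled ATP aptamer. Five buffer/ATP cycles were run with NaOH stripping and re-annealing between them. The fluorescence ratio per cluster is summed target-cycle over summed buffer-cycle Cy3 intensity, averaged per switch-domain sequence. Clusters outside 100-1000 RFU were excluded.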", "values": [{"sequence": "TTCTGTCAGG", "switch fluorescence ratio": 1.18}, {"sequence": "GTTGGCAGGT", "switch fluorescence ratio": 0.99}, {"sequence": "TCTGTTCCTG", "switch fluorescence ratio": 1.05}, {"sequence": "CGCGCGTCGC", "switch fluorescence ratio": 1.02}, {"sequence": "CTCCCCCTCG", "switch fluorescence ratio": 4.72}, {"sequence": "ACGTGAGCAC", "switch fluorescence ratio": 1.11}, {"sequence": "CGGCGAGGCG", "switch fluorescence ratio": 0.991}, {"sequence": "GTTGAATGCC", "switch fluorescence ratio": 0.992}, {"sequence": "TACGCCGGGC", "switch fluorescence ratio": 1.05}, {"sequence": "GCAGGGCTTT", "switch fluorescence ratio": 0.999}, {"sequence": "CCCTGTGGTT", "switch fluorescence ratio": 3.94}, {"sequence": "AGGTTTCTGT", "switch fluorescence ratio": 0.991}, {"sequence": "CCCAATATCG", "switch fluorescence ratio": 1.38}, {"sequence": "TTTTAACCAT", "switch fluorescence ratio": 1.06}, {"sequence": "ACAATTACTA", "switch fluorescence ratio": 1.07}, {"sequence": "AGCGTCGACC", "switch fluorescence ratio": 0.992}, {"sequence": "GGATATAGAC", "switch fluorescence ratio": 1.04}, {"sequence": "CAGGCATGT", "switch fluorescence ratio": 1.04}, {"sequence": "TTTATATACT", "switch fluorescence ratio": 1.03}, {"sequence": "TCGCATGGT", "switch fluorescence ratio": 1.16}, {"sequence": "ACGCCCTAGT", "switch fluorescence ratio": 1.06}, {"sequence": "CCTCACCATA", "switch fluorescence ratio": 3.13}, {"sequence": "CACTATATTA", "switch fluorescence ratio": 1.09}, {"sequence": "GTTTGCCCCC", "switch fluorescence ratio": 1.08}, {"sequence": "TTTGACGAGC", "switch fluorescence ratio": 1}, {"sequence": "GAGTCCCGCG", "switch fluorescence ratio": 1.08}, {"sequence": "GTTCTTTTC", "switch fluorescence ratio": 0.977}, {"sequence": "GCCCGGAATT", "switch fluorescence ratio": 1.12}, {"sequence": "GGCAGACAGG", "switch fluorescence ratio": 0.972}, {"sequence": "ATATACTACC", "switch fluorescence ratio": 1.27}, {"sequence": "GAGGATAAGG", "switch fluorescence ratio": 1}, {"sequence": "ACGGAGTTGC", "switch fluorescence ratio": 1.2}, {"sequence": "AGTTCAAG", "switch fluorescence ratio": 0.922}, {"sequence": "GCTTTGTGCC", "switch fluorescence ratio": 0.958}, {"sequence": "TCGATCGATA", "switch fluorescence ratio": 1.02}, {"sequence": "CACAAGAAGG", "switch fluorescence ratio": 1.01}, {"sequence": "GGGAGACACC", "switch fluorescence ratio": 0.985}, {"sequence": "TTCGTGGGAT", "switch fluorescence ratio": 1.05}, {"sequence": "ATTAGAGACT", "switch fluorescence ratio": 1.02}, {"sequence": "GGGGAGTCAG", "switch fluorescence ratio": 0.983}, {"sequence": "GTAGTTAGA", "switch fluorescence ratio": 0.988}, {"sequence": "TATCAAGCAT", "switch fluorescence ratio": 1.02}, {"sequence": "AATGCTTGAT", "switch fluorescence ratio": 1.02}, {"sequence": "GGGCGTTAAC", "switch fluorescence ratio": 0.999}, {"sequence": "TTCATAAGGT", "switch fluorescence ratio": 1.01}, {"sequence": "TACTAGCCTG", "switch fluorescence ratio": 0.964}, {"sequence": "ATCATTTTCA", "switch fluorescence ratio": 1.03}, {"sequence": "GAAGGGGCTA", "switch fluorescence ratio": 1.02}, {"sequence": "ACAGGAACCG", "switch fluorescence ratio": 1.02}, {"sequence": "TGCAACTATT", "switch fluorescence ratio": 1.04}, {"sequence": "TCAGGTCAGC", "switch fluorescence ratio": 0.996}, {"sequence": "CCTGCGGGTT", "switch fluorescence ratio": 1.12}, {"sequence": "TTCCGTATAA", "switch fluorescence ratio": 1.59}, {"sequence": "CCTTATACCC", "switch fluorescence ratio": 1.14}, {"sequence": "TAAATTTCG", "switch fluorescence ratio": 1.08}, {"sequence": "CGACGACATC", "switch fluorescence ratio": 3.66}, {"sequence": "CAGCGTCCCG", "switch fluorescence ratio": 1.07}, {"sequence": "ACCACATGTT", "switch fluorescence ratio": 1.09}, {"sequence": "ATGCGAATGC", "switch fluorescence ratio": 1.03}, {"sequence": "AGCATTGATT", "switch fluorescence ratio": 0.988}, {"sequence": "TTACGGGCAG", "switch fluorescence ratio": 0.994}, {"sequence": "CGGAAGGTGT", "switch fluorescence ratio": 1.23}, {"sequence": "GCTGTTACGT", "switch fluorescence ratio": 1}, {"sequence": "GATTGGATTT", "switch fluorescence ratio": 0.994}, {"sequence": "GTTATAGAAG", "switch fluorescence ratio": 1}, {"sequence": "GTTGCCGGAA", "switch fluorescence ratio": 0.998}, {"sequence": "GGGTGGATG", "switch fluorescence ratio": 0.931}, {"sequence": "TATGTGTATG", "switch fluorescence ratio": 1.02}, {"sequence": "GGAGTCGGTC", "switch fluorescence ratio": 0.993}, {"sequence": "TCGTATTAAT", "switch fluorescence ratio": 0.989}, {"sequence": "TTGATCGACG", "switch fluorescence ratio": 1.02}, {"sequence": "CTATCGAATG", "switch fluorescence ratio": 1}, {"sequence": "GCACGAGCGA", "switch fluorescence ratio": 1.13}, {"sequence": "AACATTCCTG", "switch fluorescence ratio": 1.25}, {"sequence": "AAATGTTATG", "switch fluorescence ratio": 1.01}, {"sequence": "GTCTTACACT", "switch fluorescence ratio": 1.03}, {"sequence": "GGGCCTTAGA", "switch fluorescence ratio": 0.961}, {"sequence": "CTTCTAGCTG", "switch fluorescence ratio": 1.01}, {"sequence": "AAATGAAGTA", "switch fluorescence ratio": 0.974}, {"sequence": "TTATGTCTAA", "switch fluorescence ratio": 1.02}, {"sequence": "GAAAGATTTT", "switch fluorescence ratio": 1.07}, {"sequence": "ATGAACACTT", "switch fluorescence ratio": 1.04}, {"sequence": "ACCGTGATCC", "switch fluorescence ratio": 1.54}, {"sequence": "TTCTCGGTAT", "switch fluorescence ratio": 1.08}, {"sequence": "ATGTTACGTG", "switch fluorescence ratio": 0.99}, {"sequence": "TTCTCTAGCA", "switch fluorescence ratio": 1.4}, {"sequence": "TTGGGCACGC", "switch fluorescence ratio": 1.07}, {"sequence": "TACACTTCAA", "switch fluorescence ratio": 1}, {"sequence": "TGCCAGGTTG", "switch fluorescence ratio": 1.69}, {"sequence": "TTCTGGTGGC", "switch fluorescence ratio": 0.989}, {"sequence": "ACGTTTTAGA", "switch fluorescence ratio": 1.04}, {"sequence": "ACTATGTGCT", "switch fluorescence ratio": 0.988}, {"sequence": "CCCTAAAGGG", "switch fluorescence ratio": 1.29}, {"sequence": "TACGTTCTAA", "switch fluorescence ratio": 0.945}, {"sequence": "TGCGCAAATA", "switch fluorescence ratio": 1.16}, {"sequence": "GGCTCTATTA", "switch fluorescence ratio": 1.01}, {"sequence": "GGTGTTCCTC", "switch fluorescence ratio": 1.07}, {"sequence": "ATGAGTCGAT", "switch fluorescence ratio": 1.07}, {"sequence": "CATCTACAGG", "switch fluorescence ratio": 1.03}, {"sequence": "CGGAGTTTG", "switch fluorescence ratio": 0.991}, {"sequence": "TTGTCAGCCC", "switch fluorescence ratio": 0.945}, {"sequence": "GATCCGAACG", "switch fluorescence ratio": 1.38}, {"sequence": "AATGAACATT", "switch fluorescence ratio": 0.993}, {"sequence": "CATAAGGGGT", "switch fluorescence ratio": 1.03}, {"sequence": "GCGGCAGGTC", "switch fluorescence ratio": 1.05}, {"sequence": "GTAGCACGAG", "switch fluorescence ratio": 1.32}, {"sequence": "CTAACAGCCT", "switch fluorescence ratio": 1.04}, {"sequence": "TGAAGTTCAA", "switch fluorescence ratio": 0.969}, {"sequence": "AGATGTGCAG", "switch fluorescence ratio": 1.04}, {"sequence": "CACATTAGGT", "switch fluorescence ratio": 0.992}, {"sequence": "CCTAATGTGG", "switch fluorescence ratio": 1.02}, {"sequence": "TCTCGGGAAT", "switch fluorescence ratio": 1.56}, {"sequence": "AGTTGACATA", "switch fluorescence ratio": 0.983}, {"sequence": "AGACTTGCGA", "switch fluorescence ratio": 1.03}, {"sequence": "TCTGATCTAC", "switch fluorescence ratio": 1.1}, {"sequence": "TACGCGCATA", "switch fluorescence ratio": 1.76}, {"sequence": "AAACGGGCCT", "switch fluorescence ratio": 1.07}, {"sequence": "ACGATTGGAC", "switch fluorescence ratio": 1.05}, {"sequence": "CTGGAGGTGG", "switch fluorescence ratio": 1.05}, {"sequence": "CAGGAAGACT", "switch fluorescence ratio": 1.05}, {"sequence": "TCCTGTAGGA", "switch fluorescence ratio": 1}, {"sequence": "GACTACGAGC", "switch fluorescence ratio": 1.08}, {"sequence": "ACTGAAGAT", "switch fluorescence ratio": 1.04}, {"sequence": "TTACACGCTC", "switch fluorescence ratio": 1.07}, {"sequence": "TGCGGCAATC", "switch fluorescence ratio": 1.49}, {"sequence": "CAAAAGGATC", "switch fluorescence ratio": 1.06}, {"sequence": "GCATGTAGGT", "switch fluorescence ratio": 1}, {"sequence": "TCGGACTTGC", "switch fluorescence ratio": 1}, {"sequence": "CCGATTAGTT", "switch fluorescence ratio": 1.09}, {"sequence": "TAGTACTGAG", "switch fluorescence ratio": 1.08}, {"sequence": "GTTGGTTCGC", "switch fluorescence ratio": 0.974}, {"sequence": "CAAGCGCCCG", "switch fluorescence ratio": 0.983}, {"sequence": "GTGTTTTTAC", "switch fluorescence ratio": 0.998}, {"sequence": "ATTAGCCCGA", "switch fluorescence ratio": 1.02}, {"sequence": "CCATATGTGA", "switch fluorescence ratio": 1.01}, {"sequence": "GAATGTTTCC", "switch fluorescence ratio": 0.995}, {"sequence": "AAACGTTTGA", "switch fluorescence ratio": 1.02}, {"sequence": "ATGCTCGGTG", "switch fluorescence ratio": 1.03}, {"sequence": "GTGTGACGTG", "switch fluorescence ratio": 1.01}, {"sequence": "CAAACATTGG", "switch fluorescence ratio": 1}, {"sequence": "ATTTGTACGT", "switch fluorescence ratio": 1.12}, {"sequence": "GGCAGACGGA", "switch fluorescence ratio": 1.04}, {"sequence": "GATTCTCATG", "switch fluorescence ratio": 0.979}, {"sequence": "ACCGGAAGGG", "switch fluorescence ratio": 1.02}, {"sequence": "GGGCCAGATG", "switch fluorescence ratio": 1.03}, {"sequence": "GCATTGGGCT", "switch fluorescence ratio": 0.997}, {"sequence": "AACGTCGCCC", "switch fluorescence ratio": 1.02}, {"sequence": "TTTGGATCTT", "switch fluorescence ratio": 0.998}, {"sequence": "TTCTCTCTGC", "switch fluorescence ratio": 1.08}, {"sequence": "TATCTCTATA", "switch fluorescence ratio": 0.936}, {"sequence": "GGGGCTGTTC", "switch fluorescence ratio": 0.996}, {"sequence": "GGAATTGAAA", "switch fluorescence ratio": 0.947}, {"sequence": "AGGTAGCAAC", "switch fluorescence ratio": 1.24}, {"sequence": "TCTGTCCATA", "switch fluorescence ratio": 1.01}, {"sequence": "GGGCTTAAGA", "switch fluorescence ratio": 1.03}, {"sequence": "TATTTTGAGC", "switch fluorescence ratio": 1.02}, {"sequence": "TCCAGTATAA", "switch fluorescence ratio": 1.03}]}]}
